Results taken from publication PMC4081100.
This is a selection; strong and weak results do not stand in their true shares. For some of these results: At the low end of the ranking the order means little. Some of the results follow. For some of these results: The source does not settle which construct or isoform was used.

Experiments:
Test in all cases: universal protein binding microarray (PBM)
Settings in all cases: transcription factors of Arabidopsis thaliana; high values mean tight binding; most listed sequences are background and not binding sites; double strand, one strand shown
GST-ANAC092(1-176) = target: T1, GST-ANAC092(1-176) (UniProt Q9FKA0)
T1 sequence: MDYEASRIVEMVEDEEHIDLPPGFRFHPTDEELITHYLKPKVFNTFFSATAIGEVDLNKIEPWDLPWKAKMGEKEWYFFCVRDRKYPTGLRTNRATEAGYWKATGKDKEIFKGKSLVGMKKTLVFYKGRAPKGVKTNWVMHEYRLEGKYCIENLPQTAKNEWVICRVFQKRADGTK

GST-NTL6(1-168) = GST-NTL6(1-168) (UniProt Q9SCK6)
GST-ANAC055(1-171) = target: T2, GST-ANAC055(1-171) (UniProt Q9LDY8)
T2 sequence: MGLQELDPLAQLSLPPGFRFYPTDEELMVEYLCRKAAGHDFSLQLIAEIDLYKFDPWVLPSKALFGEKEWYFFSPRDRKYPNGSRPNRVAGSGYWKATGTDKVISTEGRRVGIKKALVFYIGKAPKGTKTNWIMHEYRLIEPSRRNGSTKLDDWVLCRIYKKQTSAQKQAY

GST-ATAF1 NAC domain = target: T3, GST-ATAF1 NAC domain (UniProt Q39013)
T3 sequence: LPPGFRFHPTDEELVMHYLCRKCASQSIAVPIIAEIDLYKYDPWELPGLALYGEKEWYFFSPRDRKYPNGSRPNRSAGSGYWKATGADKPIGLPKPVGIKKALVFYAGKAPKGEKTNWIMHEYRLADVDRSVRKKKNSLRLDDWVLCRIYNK

[1] = target: T4, GST-ANAC092(1-285) full length (UniProt Q9FKA0)
T4 sequence: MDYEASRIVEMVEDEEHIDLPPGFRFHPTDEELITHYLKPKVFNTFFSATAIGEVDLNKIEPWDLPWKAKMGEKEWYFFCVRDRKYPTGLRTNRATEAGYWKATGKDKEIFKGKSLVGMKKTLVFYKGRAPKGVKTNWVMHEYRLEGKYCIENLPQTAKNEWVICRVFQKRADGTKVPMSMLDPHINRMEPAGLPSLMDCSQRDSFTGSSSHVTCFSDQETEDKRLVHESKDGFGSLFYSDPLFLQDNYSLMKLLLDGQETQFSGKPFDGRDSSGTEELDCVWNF

GST-NAP(1-166) = target: T5, GST-NAP(1-166) (UniProt O49255)
T5 sequence: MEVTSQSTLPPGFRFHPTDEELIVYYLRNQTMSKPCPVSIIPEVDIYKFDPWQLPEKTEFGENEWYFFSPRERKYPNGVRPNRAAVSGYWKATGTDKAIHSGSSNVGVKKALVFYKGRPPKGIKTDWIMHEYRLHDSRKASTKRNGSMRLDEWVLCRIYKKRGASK

GST-NTL8 NAC domain = target: T6, GST-NTL8 NAC domain (UniProt Q9XIN7)
T6 sequence: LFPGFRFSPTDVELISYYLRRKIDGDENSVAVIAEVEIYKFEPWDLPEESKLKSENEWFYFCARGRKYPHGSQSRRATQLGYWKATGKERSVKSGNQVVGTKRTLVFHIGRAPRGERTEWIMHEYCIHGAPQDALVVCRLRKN

GST-SND1(1-203) = target: T7, GST-SND1(1-203) (UniProt Q9LPI7)
T7 sequence: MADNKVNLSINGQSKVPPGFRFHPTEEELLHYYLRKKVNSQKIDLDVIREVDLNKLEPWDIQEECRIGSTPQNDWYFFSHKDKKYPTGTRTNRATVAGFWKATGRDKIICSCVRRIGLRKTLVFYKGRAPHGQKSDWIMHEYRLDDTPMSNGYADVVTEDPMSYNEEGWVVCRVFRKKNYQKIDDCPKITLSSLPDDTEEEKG

GST-VND3 NAC domain = target: T8, GST-VND3 NAC domain (UniProt Q9FH59)
T8 sequence: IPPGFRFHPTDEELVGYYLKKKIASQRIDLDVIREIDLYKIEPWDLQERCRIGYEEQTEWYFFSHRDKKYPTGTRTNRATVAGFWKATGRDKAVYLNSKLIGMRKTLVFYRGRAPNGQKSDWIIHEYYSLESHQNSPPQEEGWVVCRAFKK

GST-VND7 NAC domain = target: T9, GST-VND7 NAC domain (UniProt Q9C8W9)
T9 sequence: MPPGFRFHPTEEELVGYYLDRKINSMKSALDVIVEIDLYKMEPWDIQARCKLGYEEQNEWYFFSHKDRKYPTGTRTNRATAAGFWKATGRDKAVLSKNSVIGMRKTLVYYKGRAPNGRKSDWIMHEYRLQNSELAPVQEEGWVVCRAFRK

[2] = target: T10, GST-VOZ2 (Arabidopsis thaliana) (UniProt Q9SLB9)
T10 sequence: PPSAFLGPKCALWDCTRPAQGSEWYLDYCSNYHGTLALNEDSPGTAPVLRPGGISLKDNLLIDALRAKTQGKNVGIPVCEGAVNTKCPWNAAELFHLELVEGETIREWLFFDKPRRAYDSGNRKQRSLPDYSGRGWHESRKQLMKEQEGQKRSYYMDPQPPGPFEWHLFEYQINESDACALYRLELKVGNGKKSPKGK

GST-WRKY1(266-371) = GST-WRKY1(266-371) (UniProt Q9SI37)
GST-ANAC019 NAC domain = target: T11, GST-ANAC019 NAC domain (UniProt Q9C932)
T11 sequence: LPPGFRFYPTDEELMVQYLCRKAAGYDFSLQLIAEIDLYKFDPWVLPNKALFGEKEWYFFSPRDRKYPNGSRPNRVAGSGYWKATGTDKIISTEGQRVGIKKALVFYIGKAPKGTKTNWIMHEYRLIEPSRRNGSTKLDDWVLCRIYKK

GST-NST2(1-184) = target: T12, GST-NST2(1-184) (UniProt Q9M274)
T12 sequence: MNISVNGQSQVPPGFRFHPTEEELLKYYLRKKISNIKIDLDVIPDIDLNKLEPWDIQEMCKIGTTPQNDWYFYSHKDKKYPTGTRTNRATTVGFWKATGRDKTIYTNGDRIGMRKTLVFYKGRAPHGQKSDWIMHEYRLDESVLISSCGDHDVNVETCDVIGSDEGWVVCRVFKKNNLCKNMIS

Sequence | binding signal (GST-ANAC092(1-176)) [E-score] | binding signal (GST-NTL6(1-168)) [E-score] | binding signal (GST-ANAC055(1-171)) [E-score] | binding signal (GST-ATAF1 NAC domain) [E-score] | binding signal [1] [E-score] | binding signal (GST-NAP(1-166)) [E-score] | binding signal (GST-NTL8 NAC domain) [E-score] | binding signal (GST-SND1(1-203)) [E-score] | binding signal (GST-VND3 NAC domain) [E-score] | binding signal (GST-VND7 NAC domain) [E-score] | binding signal [2] [E-score] | binding signal (GST-WRKY1(266-371)) [E-score] | binding signal (GST-ANAC019 NAC domain) [E-score] | binding signal (GST-NST2(1-184)) [E-score]
CGTCAAAG | 0.0844 | 0.0185 | 0.00317 | -0.0234 | 0.149 | -0.0858 | 0.0498 | 0.199 | -0.0724 | -0.0265 | 0.0427 | 0.427 | – | –
ACGTAATC | – | 0.0901 | – | – | – | 0.443 | 0.0332 | 0.424 | 0.427 | 0.44 | 0.043 | -0.0937 | – | –
CCACGTAA | – | – | – | 0.306 | – | 0.308 | 0.167 | 0.0962 | 0.326 | 0.341 | 0.0743 | 0.0192 | 0.432 | –
AGGGTAAC | – | – | -0.0257 | -0.0351 | 0.0751 | -0.0184 | – | -0.00748 | -0.0172 | -0.0675 | 0.00562 | -0.185 | -0.00463 | 0.0175
CTACGCCA | – | -0.0833 | -0.0764 | – | 0.34 | -0.17 | -0.0413 | 0.454 | -0.0456 | -0.066 | -0.0407 | -0.167 | 0.00227 | –
ATTCCTTA | – | 0.486 | – | – | – | -0.0988 | 0.237 | 0.306 | 0.0907 | 0.064 | 0.0658 | 0.0163 | 0.0942 | 0.224
GGTTTGAC | 0.047 | 0.131 | – | 0.171 | – | – | -0.082 | 0.0451 | 0.0413 | -0.0576 | 0.199 | 0.483 | – | 0.177
GGGGGAAA | – | 0.314 | -0.0331 | -0.18 | – | -0.0908 | – | 0.147 | -0.0749 | -0.061 | 0.0617 | -0.0788 | – | -0.00589
GCACGCGA | – | -0.0667 | -0.0674 | -0.143 | 0.429 | -0.0234 | -0.125 | 0.286 | -0.192 | -0.00898 | -0.0408 | -0.0391 | -0.0753 | –
ACGGAACT | – | 0.012 | 0.438 | – | – | 0.452 | – | 0.178 | 0.417 | 0.445 | 0.0277 | 0.0348 | – | –
AGTCAATC | 0.0925 | 0.0768 | 0.0374 | – | – | – | 0.122 | 0.0224 | 0.0908 | 0.039 | -0.00285 | 0.468 | – | –
CTCTTGAC | – | -0.00404 | 0.00234 | – | -0.00598 | 0.0978 | -0.0117 | 0.0466 | 0.0128 | 0.0151 | -0.0906 | 0.449 | – | 0.0336
ACACGCTA | – | 0.0935 | – | – | – | – | -0.0465 | 0.438 | 0.079 | 0.104 | -0.0164 | -0.0616 | 0.16 | 0.4
AGCGTGTC | – | -0.0828 | 0.174 | – | – | – | -0.0427 | 0.131 | 0.156 | 0.208 | -0.0601 | 0.0118 | – | –
AGGTCAGA | -0.0113 | – | -0.0771 | -0.0236 | -0.0821 | -0.0842 | 0.0346 | -0.109 | -0.0583 | -0.142 | 0.0759 | 0.449 | 0.0194 | -0.026
AGGTAACC | – | – | -0.004 | -0.0178 | – | -0.0575 | – | -0.0325 | -0.0411 | 0.0253 | -0.177 | -0.0721 | 0.0345 | 0.034
GCACGGAA | – | 0.0332 | – | 0.357 | 0.413 | – | 0.193 | 0.156 | 0.402 | 0.453 | -0.0447 | 0.00131 | – | –
GAGTCAGA | -0.186 | -0.124 | -0.0923 | -0.0121 | -0.115 | -0.134 | -0.162 | -0.0641 | -0.183 | -0.173 | -0.0532 | – | -0.0967 | -0.121
AACGGTCA | 0.048 | -0.0673 | 0.029 | -0.105 | 0.0431 | 0.0361 | -0.0376 | -0.00052 | -0.106 | -0.0397 | -0.0575 | – | -0.00984 | 0.0186
GCTGACCC | -0.103 | -0.173 | -0.135 | -0.138 | -0.243 | -0.117 | -0.00172 | -0.13 | -0.23 | -0.173 | -0.0151 | – | -0.198 | -0.0988
CTAGGTCA | -0.0742 | -0.0197 | 0.0273 | -0.0746 | -0.0492 | -0.0446 | 0.00183 | -0.11 | -0.0329 | -0.0622 | -0.0937 | – | -0.0708 | -0.112
CGTCTGAC | -0.16 | -0.183 | -0.0621 | -0.066 | -0.0675 | -0.012 | -0.135 | -0.0322 | -0.0622 | -0.0229 | -0.0316 | – | 0.0304 | -0.0502
